For the data set, the system named is NCI-H322M. The settings on record: for Total growth inhibition (TGI): Non-Small Cell Lung; for GI50: Non-Small-Cell Lung; for CC50: read-out: 50% lethal concentration (LC50), Non-Small Cell Lung.

A value given as a limit tells only on which side of the number the result lay.

Turning to `C=C1CCC2C3(C)COC(c4cn(-c5ccccc5)nc4-c4ccccc4)OC3CCC2(C)C1CC=C1C(=O)OCC1O` (stereo not drawn) [1a], the Total growth inhibition (TGI) is 14 µM, the GI50 (commonly the concentration giving 50% growth inhibition) was 3.35 µM and the CC50 was 83.7 µM.

For the compound `C=C1CCC2C3(C)COC(c4cn(-c5ccccc5)nc4-c4cccc([N+](=O)[O-])c4)OC3CCC2(C)C1CC=C1C(=O)OCC1O` (stereo not drawn) [1b], the Total growth inhibition (TGI) was over 100 µM, the GI50 worked out at 1.76 µM and the CC50 was over 100 µM.

As to `C=C1CCC2C3(C)COC(c4cn(-c5ccccc5)nc4-c4cccc(F)c4)OC3CCC2(C)C1CC=C1C(=O)OCC1O` (stereo not drawn) [1c], the Total growth inhibition (TGI) is 19.4 µM, the GI50 came out at 4.22 µM and the CC50 is over 100 µM.

As to `C=C1CCC2C3(C)COC(c4cn(-c5ccccc5)nc4-c4cccc(Cl)c4)OC3CCC2(C)C1CC=C1C(=O)OCC1O` (stereo not drawn) [1d], the Total growth inhibition (TGI) stood at 19.9 µM, halving of growth (GI50) required 3.26 µM and the CC50 was over 100 µM.

For `C=C1CCC2C3(C)COC(c4cn(-c5ccccc5)nc4-c4cccc(Br)c4)OC3CCC2(C)C1CC=C1C(=O)OCC1O` (stereo not drawn) [1e], the CC50 was over 100 µM.

As for `C=C1CCC2C3(C)COC(c4cn(-c5ccccc5)nc4-c4ccc(F)cc4)OC3CCC2(C)C1CC=C1C(=O)OCC1O` (stereo not drawn) [1f, 3,19-(N-Phenyl-3-(4-fluorophenyl)-pyrazole) Acetal of Andrographolide], the Total growth inhibition (TGI) is 15.8 µM, the GI50 was 3.34 µM and the CC50 stood at 90.6 µM.

Take `C=C1CCC2C3(C)COC(c4cn(-c5ccccc5)nc4-c4ccc(Cl)cc4)OC3CCC2(C)C1CC=C1C(=O)OCC1O` (stereo not drawn) [1g]: the Total growth inhibition (TGI) amounted to 36.5 µM and it took 1.02 µM to inhibit growth by half (GI50).

As to `C=C1CCC2C3(C)COC(c4cn(-c5ccccc5)nc4-c4ccc(Br)cc4)OC3CCC2(C)C1CC=C1C(=O)OCC1O` (stereo not drawn) [1h], the Total growth inhibition (TGI) is 26.4 µM, growth was halved (GI50) at 4.2 µM and the CC50 is over 100 µM.

As for `C=C1CCC2C3(C)COC(c4cn(-c5ccccc5)nc4-c4ccc(C)cc4)OC3CCC2(C)C1CC=C1C(=O)OCC1O` (stereo not drawn) [1i], the Total growth inhibition (TGI) stood at 25.3 µM, growth was halved (GI50) at 4.92 µM and the CC50 is over 100 µM.

On to `C=C1CCC2C3(C)COC(c4cn(-c5ccccc5)nc4-c4ccc(OC)cc4)OC3CCC2(C)C1CC=C1C(=O)OCC1O` (stereo not drawn) [1j], for which the Total growth inhibition (TGI) turned out to be 16.5 µM, it took 2.94 µM to inhibit growth by half (GI50) and the CC50 was over 100 µM.

Source of the values: publication PMC12298351, “Novel 3,19-(N-Phenyl-3-(4-fluorophenyl)-pyrazole) Acetal of Andrographolide Promotes Cell Cycle Arrest and Apoptosis in MDA-MB-231 Breast Cancer Cells” (Pharmaceuticals, 2025).
